# Measured values as given in the supplement of paper PMC8728848.
# Some of the results follow.
# Legend:
# Test in all cases: glycan array binding signal (z-score within array); higher = stronger binding
# Conditions in all cases: glycan notation: IUPAC condensed, linker removed
# [1] = target: Neu5Ac(a2-6)GlcNAc(b1-4)GlcNAc
# In short: (§1)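 Columns mapping to the same glycan were averaged after glycan names were converted to IUPAC-condensed notation. The data come from 3228 arrays in the Consortium for Functional Glycomics database, limited to those with an available protein sequence. Binding is reported as a within-array Z-score averaged across arrays of one protein sequence and across linkers.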
# [2] = target: Neu5Ac(a2-6)GlcNAc(b1-4)GlcNAc(b1-4)GlcNAc
# In short: as §1
# Neu5Ac(a2-8)Neu5Ac = target: Neu5Ac(a2-8)Neu5Ac
# In short: as §1
# [3] = target: Neu5Ac(a2-8)Neu5Ac(a2-3)Gal(b1-3)GalNAc(b1-4)[Neu5Ac(a2-3)]Gal(b1-4)Glc
# In short: as §1
# [4] = target: Neu5Ac(a2-8)Neu5Ac(a2-3)Gal(b1-3)GalNAc(b1-4)[Neu5Ac(a2-8)Neu5Ac(a2-3)]Gal(b1-4)Glc
# In short: as §1
# [5] = target: Neu5Ac(a2-8)Neu5Ac(a2-3)Gal(b1-4)Glc
# In short: as §1
# [6] = target: Neu5Ac(a2-8)Neu5Ac(a2-3)Gal(b1-4)GlcNAc
# In short: as §1
# [7] = target: Neu5Ac(a2-8)Neu5Ac(a2-3)[Gal(b1-3)GalNAc(b1-4)]Gal(b1-4)Glc
# In short: as §1
# [8] = target: Neu5Ac(a2-8)Neu5Ac(a2-3)[GalNAc(b1-4)]Gal(b1-4)Glc
# In short: as §1
# [9] = target: Neu5Ac(a2-8)Neu5Ac(a2-8)Neu5Ac
# In short: as §1
# [10] = target: Neu5Ac(a2-8)Neu5Ac(a2-8)Neu5Ac(a2-3)Gal(b1-4)Glc
# In short: as §1
# [11] = target: Neu5Ac(a2-8)Neu5Ac(a2-8)Neu5Ac(a2-3)[Gal(b1-3)GalNAc(b1-4)]Gal(b1-4)Glc
# In short: as §1
# [12] = target: Neu5Ac(a2-8)Neu5Ac(a2-8)Neu5Ac(a2-3)[GalNAc(b1-4)]Gal(b1-4)Glc
# In short: as §1
# [13] = target: Neu5Ac(a2-8)Neu5Ac(a2-8)Neu5Ac(a2-8)Neu5Ac(a2-3)[GalNAc(b1-4)]Gal(b1-4)Glc
# In short: as §1
# [14] = target: Neu5Ac(a2-8)Neu5Gc(a2-3)Gal(b1-4)GlcNAc
# In short: as §1
# [15] = target: Neu5Ac(b2-6)Gal(b1-4)GlcNAc
# In short: as §1
# Neu5Ac(b2-6)GalNAc = target: Neu5Ac(b2-6)GalNAc
# In short: as §1
# [16] = target: Neu5Ac9Ac(a2-3)Gal(b1-3)GlcNAc
# In short: as §1
# [17] = target: Neu5Ac9Ac(a2-3)Gal(b1-4)GlcNAc
# In short: as §1
# [18] = target: Neu5Ac9Ac(a2-6)Gal(b1-4)GlcNAc
# In short: as §1
# [19] = target: Neu5Gc(a2-3)Gal(b1-3)GlcNAc
# In short: as §1
# [20] = target: Neu5Gc(a2-3)Gal(b1-3)[Fuc(a1-4)]GlcNAc
# In short: as §1
# Neu5Gc(a2-3)Gal(b1-4)Glc = target: Neu5Gc(a2-3)Gal(b1-4)Glc
# In short: as §1
# [21] = target: Neu5Gc(a2-3)Gal(b1-4)GlcNAc
# In short: as §1
# [22] = target: Neu5Gc(a2-3)Gal(b1-4)GlcNAc(b1-3)Gal(b1-4)GlcNAc(b1-2)Man(a1-3)[Neu5Gc(a2-3)Gal(b1-4)GlcNAc(b1-3)Gal(b1-4)GlcNAc(b1-2)Man(a1-6)]Man(b1-4)GlcNAc(b1-4)GlcNAc
# In short: as §1
# [23] = target: Neu5Gc(a2-3)Gal(b1-4)[Fuc(a1-3)]GlcNAc
# In short: as §1
# [24] = target: Neu5Gc(a2-6)Gal(b1-4)GlcNAc
# In short: as §1
# Neu5Gc(a2-6)GalNAc = target: Neu5Gc(a2-6)GalNAc
# In short: as §1
# [25] = target: Neu5Gc(a2-8)Neu5Ac(a2-3)Gal(b1-4)GlcNAc
# In short: as §1
# [26] = target: Neu5Gc(a2-8)Neu5Gc(a2-3)Gal(b1-4)GlcNAc
# In short: as §1
binder,measurement,setting,value
CvGal2 (Crassostrea virginica) (protein) MGSSHHHHHHSSGLVPRGSHMRIREAGKRKDTTKVYQIPDGLFPGQQVMLRGRVPWGSKSFSINFSATPRMGEGDILFHLNPRPSEGVCIRNALLNGSWGAEEKWQPYFPFDDGRSFSVKIEVTNDAFRTFVNGRPFVDFLHRTDFRAGKYLTLREGAEYYDVIFQSKPNIPLTTAIHNGMRIGKTIRIRGMCTAQDGFAINFNDNRNNIYFHFNARPAQRTVVRNSYFGSWGNEETAISKEFPFYPFLYFYASFVCMEDKFAVYVNDEHFIDFAHRGNPNNISVLQIKGSVNVLDTECLEPMGEDAMTEVDSGLENGDLFVLNGLMTERGKTFAVNFLNGFTENDDIALHFNPRKSTGEVVLNSRYGGAWQSEEKVALPGVFWSNRPLQVKVETKRNKFKIYVNGVDLAKYKIRGNVEDVHAVQVKGDVFLLETLLLKRLMKPVWERLTGGIRPGTWVTLQGTPKKNWQQFVVNFALDDTLDGDIAFHFNVRRGARQVVRNHRQSGAWGREETVTPFFAFDSEATFEIVFFVKEEKFLIYFNGKLFFEFVHRVPVERITHIYMDGDCNFYEPEVVI,glycan array binding signal (z-score),[1],-0.336
same,glycan array binding signal (z-score),[2],-0.335
same,glycan array binding signal (z-score),Neu5Ac(a2-8)Neu5Ac,-0.332
same,glycan array binding signal (z-score),[3],-0.329
same,glycan array binding signal (z-score),[4],-0.298
same,glycan array binding signal (z-score),[5],-0.336
same,glycan array binding signal (z-score),[6],-0.335
same,glycan array binding signal (z-score),[7],-0.316
same,glycan array binding signal (z-score),[8],-0.346
same,glycan array binding signal (z-score),[9],-0.335
same,glycan array binding signal (z-score),[10],-0.336
same,glycan array binding signal (z-score),[11],-0.325
same,glycan array binding signal (z-score),[12],-0.338
same,glycan array binding signal (z-score),[13],-0.338
same,glycan array binding signal (z-score),[14],0.001
same,glycan array binding signal (z-score),[15],-0.332
same,glycan array binding signal (z-score),Neu5Ac(b2-6)GalNAc,-0.335
same,glycan array binding signal (z-score),[16],-0.322
same,glycan array binding signal (z-score),[17],-0.252
same,glycan array binding signal (z-score),[18],-0.321
same,glycan array binding signal (z-score),[19],-0.336
same,glycan array binding signal (z-score),[20],-0.338
same,glycan array binding signal (z-score),Neu5Gc(a2-3)Gal(b1-4)Glc,-0.314
same,glycan array binding signal (z-score),[21],-0.332
same,glycan array binding signal (z-score),[22],-0.319
same,glycan array binding signal (z-score),[23],-0.299
same,glycan array binding signal (z-score),[24],-0.338
same,glycan array binding signal (z-score),Neu5Gc(a2-6)GalNAc,-0.336
same,glycan array binding signal (z-score),[25],-0.329
same,glycan array binding signal (z-score),[26],-0.341
